Measurements: paper PMC5540273 (PLoS ONE, 2017)
For some of these results: Shown are results outside the selection of strong results, which stands elsewhere. This is a selection; strong and weak results do not stand in their true shares.

How the values were obtained:
Conditions in all cases: concentration: 1 μM,replicates: in singlicate; n = 1
STK33 = tested on: STK33
STK35 = tested on: STK35
STK36 = tested on: STK36
STK39 = tested on: STK39
SYK = tested on: SYK
SgK110 = tested on: SgK110
TAK1 = tested on: T1, TAK1
T1 construct: gene MAP3K7

TAOK1 = tested on: TAOK1
TAOK2 = tested on: TAOK2
TAOK3 = tested on: TAOK3
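Further: KINOMEscan kinase panel screen.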

Compound | %Inh (STK33) | %Inh (STK35) | %Inh (STK36) | %Inh (STK39) | %Inh (SYK) | %Inh (SgK110) | %Inh (TAK1) | %Inh (TAOK1) | %Inh (TAOK2) | %Inh (TAOK3)
O=C(O)c1ccc(-c2nc(-c3ccc(F)cc3)c(-c3ccncc3)[nH]2)cc1 [SB-202620] | 12% | 6% | 48% | 29% | 18% | 43% | 9% | 0% | 55% | 2%
O=C1NC(=O)C(c2ccc(Cl)cc2)=C1Nc1ccccc1 [SB-317661] | 16% | 0% | 0% | 20% | 0% | 0% | 0% | 0% | 50% | 3%
COc1cccc(C2=C(Nc3ccc(SC)cc3)C(=O)NC2=O)c1 [SB-331032] | 0% | 0% | 20% | 14% | 26% | 15% | 20% | 28% | 19% | 19%
O=C1NC(=O)C(c2ccccc2Cl)=C1Nc1ccccc1 [SB-376715] | 0% | 0% | 7% | 0% | 10% | 0% | 0% | 1% | 3% | 4%
O=C1NC(=O)c2c1c(-c1ccccc1)cc1[nH]c3ccc(O)cc3c21 | 46% | 49% | 1% | 27% | 71% | 0% | 51% | 0% | 0% | 6%
O=C1NC(=O)C(c2ccccc2)=C1Nc1cc(Cl)c(O)c(Cl)c1 [SB-390530] | 0% | 0% | 0% | 60% | 0% | 0% | 32% | 64% | 0% | 0%
Cc1ccc(C)c(Oc2nccc(-c3c(-c4ccc(F)cc4)ncn3C3CCNCC3)n2)c1.O=C(O)C(F)(F)F.O=C(O)C(F)(F)F.O=C(O)C(F)(F)F [SB-284852] | 1% | 0% | 11% | 0% | 15% | 7% | 0% | 0% | 27% | 0%
CS(=O)(=O)c1ccccc1-c1nc(-c2ccc(F)cc2)c(-c2ccncc2)[nH]1 [SB-213663] | 14% | 0% | 43% | 34% | 7% | 30% | 43% | 0% | 0% | 0%
O=C1NC(=O)C(c2ccc(Cl)cc2)=C1Nc1cccc(O)c1 [SB-333613] | 23% | 1% | 0% | 35% | 9% | 0% | 26% | 26% | 3% | 24%
O=C1NC(=O)C(c2ccccc2)=C1Nc1ccc(Cl)c(C(=O)O)c1 [SB-390532] | 0% | 0% | 0% | 7% | 0% | 10% | 0% | 0% | 0% | 0%
O=C1NC(=O)C(c2ccc(Cl)cc2)=C1Nc1ccc(O)c(Cl)c1 [SB-405367] | 0% | 0% | 0% | 13% | 3% | 35% | 18% | 0% | 0% | 0%
O=C1NC(=O)C(c2ccccc2Cl)=C1Nc1cccc(C(=O)O)c1 [SB-390526] | 0% | 0% | 3% | 6% | 9% | 0% | 4% | 13% | 5% | 0%
CSc1ccc(NC2=C(c3cccc(Cl)c3)C(=O)NC2=O)cc1 [SB-341528] | 0% | 0% | 0% | 0% | 0% | 0% | 52% | 0% | 0% | 3%
COc1ccc(C2=C(Nc3cccc(Cl)c3)C(=O)NC2=O)cc1 [SB-326892] | 0% | 0% | 0% | 0% | 0% | 0% | 0% | 0% | 12% | 0%
O=C1NC(=O)C(c2ccc(Cl)cc2)=C1Nc1cccc(C(=O)O)c1 [SB-360737] | 0% | 0% | 0% | 24% | 5% | 0% | 0% | 0% | 8% | 0%
Cc1cc(C)cc(Oc2nccc(-c3c(-c4ccc(F)cc4)ncn3C3CCNCC3)n2)c1.O=C(O)C(F)(F)F.O=C(O)C(F)(F)F.O=C(O)C(F)(F)F [SB-284851] | 0% | 0% | 0% | 0% | 27% | 0% | 0% | 0% | 38% | 0%
